Here are results for 14 molecules from PMC12136788.

T1: UNK ZnF1-3 (human, UniProt Q9C0B0 31-174)
T1 sequence: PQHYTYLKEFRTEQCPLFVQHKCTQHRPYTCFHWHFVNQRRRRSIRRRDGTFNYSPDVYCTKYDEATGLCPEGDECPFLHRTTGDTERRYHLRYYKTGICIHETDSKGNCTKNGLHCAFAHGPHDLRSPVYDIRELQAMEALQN

B1: chrX:98862621:98862622:+_ENSMUSG00000034160_ENSMUST00000044475|mus_hu|mus_mus_mus_hu_False|48_78 (ssRNA)
RNA: GGGAGUUCUACAGUCCGACGAUCCUGCAUCUCCUUUAGAGUGUUUCCCAUAUUAGAAUAAGCAUCAGCAAAGGUAGGACUGAUUCGUAUGGCUUCUUUAUAAUGCAUCAGAGCUUCCUGCAGUUUUCCCUGCUGCUGCAGUACCAACAGAGGAUUGAGCAUCA
B2: chr17:13113627:13113628:+_ENSMUSG00000068039_ENSMUST00000151287|mus_hu|FALSE|FALSE (ssRNA)
RNA: GGGAGUUCUACAGUCCGACGAUCAAGCUUCAUUUUUGUUUUUUGCAGGCUGAAGUCAAGGCAAGCAAUUUUUGCAUUUACGAUUCUCUUGGGCAUGCCCUGGGAUCCCACCACACAGUUGAGUGCAUAGCCACUGAUGAGCAUCAACAGAGGAUUGAGCAUCA
B3: chr11:100882373:100882374:+_ENSMUSG00000019302_ENSMUST00000044721|mus_mus|mus_mus_mus_hu_True|1_38 (ssRNA)
RNA: GGGAGUUCUACAGUCCGACGAUCUUCCUGGUUUGUGUUGAUUUCCUUCAGUUCAUUUUCAAUCUUCUCAAAAUUGGCCUCUAAGUCAAUCAUGUCCCGAGGGAAGGGAACCUCUGGGUUUUCACCGGUGUCCAUAAUUGGGAUCAACAGAGGAUUGAGCAUCA
B4: chr14:92597410:92597411:+_ENSG00000165934_ENST00000298875|hu_mus|motif|central (ssRNA)
RNA: GGGAGUUCUACAGUCCGACGAUCGGAAUCAAUAAUGUCCACAGAGAAGUGUUCAUCCCAGCCACAGUCCAACAAAAACCGGAACUCAUCAACCUGGAGAAGAUAGCAAAGAGCGGACUCUUCUUGAACCCCAGAGAGGGUGGUCAACAGAGGAUUGAGCAUCA
B5: chr1:93819538:93819539:+_ENSG00000117505_ENST00000370267|hu_hu|motif|central (ssRNA)
RNA: GGGAGUUCUACAGUCCGACGAUCUUCUUCAGGAAUGCCAAGGUUUUCCAAACGAGAACUGGCCUUUCUUCUUUUUAAUGCGGCUGUUUUACACUCUUGCAAGACUUCUUUUACUUCACUGAUGUAAGAGCCAAAUCCCAAACUCAACAGAGGAUUGAGCAUCA
B6: chr11:85733470:85733471:-_ENSG00000073921_ENST00000532317|hu_mus|motif|central (ssRNA)
RNA: GGGAGUUCUACAGUCCGACGAUCUUUUGUGAAAUCGAAUGCAACUUGUCUGUAUGAAACUGCUUUUUCAUUUAAGUAUCGGCGGUACCGUCUAAUAAAUGUAGACAUAUCAUAUCCUUGCAAUCCACUUUUAUCCAAAAAAUUCAACAGAGGAUUGAGCAUCA
B7: 74666470_74670262_1565_CDS_ENSG00000168411_ENST00000361070|human|control|control (ssRNA)
RNA: GGGAGUUCUACAGUCCGACGAUCGAGGUAACUGCUAAACGCCAGUCCACGGAUCUGUUUGCCAUGCAUCGGAAUGUACUGACUGCUCUUCAUGUUGGCAGUACUCAACAUCUUAACACCAAAGCCUGGAAGAAAAGAGGCCUGCAACAGAGGAUUGAGCAUCA
B8: 102192454_102204202_1208_CDS_ENSMUSG00000021182_ENSMUST00000068411|mouse|control|control (ssRNA)
RNA: GGGAGUUCUACAGUCCGACGAUCGGCAGUCAGUUGUUCCUCCAACAUGGCUUUGGUCUCGAUUAAGAUGAUAUUGUCUUCCCUCAGCUCCUCCAUGCGAGCCUUGUAGAAGUCCACGUCGUGCAGCUUCUCCUUGCAGCGUACCAACAGAGGAUUGAGCAUCA
B9: chr7:34932688:34932689:-_ENSMUSG00000052997_ENSMUST00000102746|mus_mus|motif|central (ssRNA)
RNA: GGGAGUUCUACAGUCCGACGAUCCAAGAGCUUCUUUCUUGGGUUUGGCUGCUUAUUCAAAAAAAUAGUUCUACACUGGUCGGUUUUUCCAGAUAAAAUCUUUAAUCCUUCCAACACUAUCAAGCCGGCGAUCACUGCAUUAGUCAACAGAGGAUUGAGCAUCA
B10: chr6:17615347:17615348:+_ENSMUSG00000015733_ENSMUST00000015877|mus_mus|motif|central (ssRNA)
RNA: GGGAGUUCUACAGUCCGACGAUCAUCUGCUCAUGCAAUUUUCAUUUAUGCAUUCUGCAUCUCUUUGCCAAUCUUGUAGCGGAGGAUCUUGUUCCAGUCGAUCUUAGUACGUGUCACUGGCAACUGUCGACGUAAGGCUUUGAACAACAGAGGAUUGAGCAUCA
B11: chr10:33190432:33190433:-_ENSG00000150093_ENST00000302278|hu_mus|hu_hu_hu_mus_True|18_108 (ssRNA)
RNA: GGGAGUUCUACAGUCCGACGAUCUACAUUUUCAAAACCUGCAUGUGAAUAAAACCCUGGCCACAGAGCCCCAAAACUACCCUACUGUGACUAAGAUGCUGCUGCUGUGAGCUUGGUUGUUGUGGGACCGCCUGAGUAGGAUUCCAACAGAGGAUUGAGCAUCA
B12: 65275549_65275669_1531_CDS_ENSMUSG00000051675_ENSMUST00000050850|mouse|control|control (ssRNA)
RNA: GGGAGUUCUACAGUCCGACGAUCGCCCCAUGGUUUGCUCAGCUGGCUCCUGUGACAGGCCACACAGUGGCCAUCCAUGGUAUAGACUUUAAGGGAGUUGUCGUAGCUAUCAGUGACACCAAUCAGCCCAUGGCAGUUCAUGGCCAACAGAGGAUUGAGCAUCA
B13: chr2:37459336:37459337:+_ENSG00000003509_ENST00000002125|hu_mus|FALSE|FALSE (ssRNA)
RNA: GGGAGUUCUACAGUCCGACGAUCCAAAACCUCCUUCAUGUACUCGGCCACAGUGAUGGGACCUGUAGACUUUAUUUUGUACAUAAGAUGCCGCAGCAUCGGUGUCACCUGGUUGCUUUCUGCCGGCUCAUUCCCGGAGCUGUACAACAGAGGAUUGAGCAUCA
B14: 54996932_54997052_332_3pUTR_ENSMUSG00000032307_ENSMUST00000059555|mouse|control|control (ssRNA)
RNA: GGGAGUUCUACAGUCCGACGAUCAUGACCCAGCCCCUUUCCGCCCCACACCGGGGCUCCGCGCCCAGCACCCGCCGCUCGCCCCGAGGAUUUGGGCCGGCGGCACCGCACGAGGAUGAACCUGAGCUCCCCUGCGCGCCUCUGCAACAGAGGAUUGAGCAUCA

This is one part of the list.

The assay addresses T1, UNK ZnF1-3. In words: nsRBNS (natural sequence RNA bind-n-seq); RBNS binding buffer (assumed for nsRBNS): 25 mM Tris pH 7.5, 150 mM KCl, 3 mM MgCl2, 0.01% Triton X-100, 500 ug/ml BSA, 20 U/ml SUPERase-In, 4 C; UNK is unkempt and MSI1 is Musashi-1; names of the RNAs are library labels; protein concentration not given here; high values mean tight binding.
The molecule B1 yielded a binding signal of 1.15 enrichment R.

Consider B2, for which the binding signal was determined as 0.859 enrichment R. Then B3, with 0.643 enrichment R. Then B4, with 1.02 enrichment R; and B5, with 0.479 enrichment R. Then B6, with 0.367 enrichment R; and B7, with 0.899 enrichment R; and B8, with 0.694 enrichment R. B9: the binding signal worked out at 1.16 enrichment R. The result for B10 reads 0.519 enrichment R; that for B11, 1.28 enrichment R; that for B12, 1.25 enrichment R. Then B13, with 0.78 enrichment R; and B14, with 1.08 enrichment R.
